Laboratory results: PMC9911399, “Two distinct binding modes provide the RNA-binding protein RbFox with extraordinary sequence specificity”
Where a chain is given by its changes, count along the chain named. This is one part of the list.

T1: RBFOX1 RRM (Homo sapiens, UniProt Q9NWB1 109-208)
T1 sequence: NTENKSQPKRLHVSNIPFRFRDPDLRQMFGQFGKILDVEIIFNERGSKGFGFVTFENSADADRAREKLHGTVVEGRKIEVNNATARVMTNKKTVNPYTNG

B1: GCACUAC (DNA:RNA)
RNA: GGGAGACCGGAAUUCAGAUUGUCCGCACUACUUAAAUCCCGUCGUAGCCACCA
DNA 1: CAATCTGAATTCCGGTCTCCC
DNA 2: TGGTGGCTACGACGGGATT
B2: AUCGCAC (DNA:RNA)
RNA: B1 RNA with G25A, C26U, A27C, C28G, U29C
DNA 1: CAATCTGAATTCCGGTCTCCC
DNA 2: TGGTGGCTACGACGGGATT
B3: UCACGUU (DNA:RNA)
RNA: B1 RNA with G25U, U29G, A30U, C31U
DNA 1: CAATCTGAATTCCGGTCTCCC
DNA 2: TGGTGGCTACGACGGGATT
B4: GCGUUCC (DNA:RNA)
RNA: B1 RNA with A27G, C28U, A30C
DNA 1: CAATCTGAATTCCGGTCTCCC
DNA 2: TGGTGGCTACGACGGGATT
B5: UGAGCGC (DNA:RNA)
RNA: B1 RNA with G25U, C26G, C28G, U29C, A30G
DNA 1: CAATCTGAATTCCGGTCTCCC
DNA 2: TGGTGGCTACGACGGGATT
B6: CGUUGGG (DNA:RNA)
RNA: GGGAGACCGGAAUUCAGAUUGUCCCGUUGGGUUAAAUCCCGUCGUAGCCACCA
DNA 1: CAATCTGAATTCCGGTCTCCC
DNA 2: TGGTGGCTACGACGGGATT
B7: UGCUGGC (DNA:RNA)
RNA: B6 RNA with C25U, U27C, G31C
DNA 1: CAATCTGAATTCCGGTCTCCC
DNA 2: TGGTGGCTACGACGGGATT
B8: AGUAGCA (DNA:RNA)
RNA: B6 RNA with C25A, U28A, G30C, G31A
DNA 1: CAATCTGAATTCCGGTCTCCC
DNA 2: TGGTGGCTACGACGGGATT
B9: CGGCAUA (DNA:RNA)
RNA: B6 RNA with U27G, U28C, G29A, G30U, G31A
DNA 1: CAATCTGAATTCCGGTCTCCC
DNA 2: TGGTGGCTACGACGGGATT
B10: CCAACCU (DNA:RNA)
RNA: B1 RNA with G25C, C28A, U29C, A30C, C31U
DNA 1: CAATCTGAATTCCGGTCTCCC
DNA 2: TGGTGGCTACGACGGGATT
B11: GUAUAGC (DNA:RNA)
RNA: B1 RNA with C26U, C28U, U29A, A30G
DNA 1: CAATCTGAATTCCGGTCTCCC
DNA 2: TGGTGGCTACGACGGGATT
B12: CCAGGUA (DNA:RNA)
RNA: B6 RNA with G26C, U27A, U28G, G30U, G31A
DNA 1: CAATCTGAATTCCGGTCTCCC
DNA 2: TGGTGGCTACGACGGGATT
B13: GAUAGUA (DNA:RNA)
RNA: B6 RNA with C25G, G26A, U28A, G30U, G31A
DNA 1: CAATCTGAATTCCGGTCTCCC
DNA 2: TGGTGGCTACGACGGGATT
B14: UCUGCAC (DNA:RNA)
RNA: B1 RNA with G25U, A27U, C28G, U29C
DNA 1: CAATCTGAATTCCGGTCTCCC
DNA 2: TGGTGGCTACGACGGGATT
B15: CACUUCG (DNA:RNA)
RNA: B6 RNA with G26A, U27C, G29U, G30C
DNA 1: CAATCTGAATTCCGGTCTCCC
DNA 2: TGGTGGCTACGACGGGATT
B16: CUUACGC (DNA:RNA)
RNA: B6 RNA with G26U, U28A, G29C, G31C
DNA 1: CAATCTGAATTCCGGTCTCCC
DNA 2: TGGTGGCTACGACGGGATT
B17: GUGUGAG (DNA:RNA)
RNA: B6 RNA with C25G, G26U, U27G, G30A
DNA 1: CAATCTGAATTCCGGTCTCCC
DNA 2: TGGTGGCTACGACGGGATT
B18: GGACAAA (DNA:RNA)
RNA: B1 RNA with C26G, U29A, C31A
DNA 1: CAATCTGAATTCCGGTCTCCC
DNA 2: TGGTGGCTACGACGGGATT
B19: AAACGCC (DNA:RNA)
RNA: B1 RNA with G25A, C26A, U29G, A30C
DNA 1: CAATCTGAATTCCGGTCTCCC
DNA 2: TGGTGGCTACGACGGGATT
B20: UCAUCCA (DNA:RNA)
RNA: B1 RNA with G25U, C28U, U29C, A30C, C31A
DNA 1: CAATCTGAATTCCGGTCTCCC
DNA 2: TGGTGGCTACGACGGGATT
B21: GGUUGGC (DNA:RNA)
RNA: B6 RNA with C25G, G31C
DNA 1: CAATCTGAATTCCGGTCTCCC
DNA 2: TGGTGGCTACGACGGGATT
B22: AAGAUGA (DNA:RNA)
RNA: B6 RNA with C25A, G26A, U27G, U28A, G29U, G31A
DNA 1: CAATCTGAATTCCGGTCTCCC
DNA 2: TGGTGGCTACGACGGGATT
B23: AGGUGAC (DNA:RNA)
RNA: B6 RNA with C25A, U27G, G30A, G31C
DNA 1: CAATCTGAATTCCGGTCTCCC
DNA 2: TGGTGGCTACGACGGGATT
B24: UUCCAAA (DNA:RNA)
RNA: B1 RNA with G25U, C26U, A27C, U29A, C31A
DNA 1: CAATCTGAATTCCGGTCTCCC
DNA 2: TGGTGGCTACGACGGGATT
B25: UGGUGGG (DNA:RNA)
RNA: B6 RNA with C25U, U27G
DNA 1: CAATCTGAATTCCGGTCTCCC
DNA 2: TGGTGGCTACGACGGGATT
B26: GAGAAUA (DNA:RNA)
RNA: B1 RNA with C26A, A27G, C28A, U29A, A30U, C31A
DNA 1: CAATCTGAATTCCGGTCTCCC
DNA 2: TGGTGGCTACGACGGGATT
B27: CCUAGCG (DNA:RNA)
RNA: B6 RNA with G26C, U28A, G30C
DNA 1: CAATCTGAATTCCGGTCTCCC
DNA 2: TGGTGGCTACGACGGGATT
B28: UUCAUUU (DNA:RNA)
RNA: B1 RNA with G25U, C26U, A27C, C28A, A30U, C31U
DNA 1: CAATCTGAATTCCGGTCTCCC
DNA 2: TGGTGGCTACGACGGGATT
B29: AUGAGCG (DNA:RNA)
RNA: B6 RNA with C25A, G26U, U27G, U28A, G30C
DNA 1: CAATCTGAATTCCGGTCTCCC
DNA 2: TGGTGGCTACGACGGGATT
B30: AUGCAAA (DNA:RNA)
RNA: B1 RNA with G25A, C26U, A27G, U29A, C31A
DNA 1: CAATCTGAATTCCGGTCTCCC
DNA 2: TGGTGGCTACGACGGGATT
B31: GUUUGUG (DNA:RNA)
RNA: B6 RNA with C25G, G26U, G30U
DNA 1: CAATCTGAATTCCGGTCTCCC
DNA 2: TGGTGGCTACGACGGGATT

The binders below were run against T1, RBFOX1 RRM (assay: EMSA; HiTS-Eq, 1 nM pool, 10 min; buffer printed only for the single-RNA assays: 10 mM Tris pH 7.5, 150 mM NaCl, 3.4 mM EDTA, 0.001% NP-40, 30 C). Conditions: tags: His6 N-terminal (pET28a); label: 5' 32P.
Outline: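 Relative association constants, normalised to the cognate motif, were derived by comparing read counts of each RNA species with those of the control reaction. The RNA sequenced was the free fraction, separated by 8% native PAGE after a 10 min equilibration in 50 µL of 1 nM 5′-radiolabelled RNA (7 randomized nucleotides) with increasing concentrations of purified wild-type or mutant RbFox RRM.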
With B1 the binding signal was 0.0024 KA relative to UGCAUGU.
In the case of B2, the binding signal is reported as 0.00838 KA relative to UGCAUGU.
In the case of B3, the binding signal is reported as 0.00799 KA relative to UGCAUGU.
In the case of B4, the binding signal is reported as 0.0126 KA relative to UGCAUGU.
With B5 the binding signal was 0.0179 KA relative to UGCAUGU.
With B6 the binding signal was 0.00404 KA relative to UGCAUGU.
For B7, the binding signal was 0.0238 KA relative to UGCAUGU.
In the case of B8, the binding signal is reported as 0.0142 KA relative to UGCAUGU.
With B9 the binding signal was 0.00583 KA relative to UGCAUGU.
With B10 the binding signal was 0.00376 KA relative to UGCAUGU.
For B11, the binding signal was 0.00925 KA relative to UGCAUGU.
With B12 the binding signal was 0.00832 KA relative to UGCAUGU.
For B13, the binding signal was 0.0146 KA relative to UGCAUGU.
B14 was tested, and the binding signal was 0.0198 KA relative to UGCAUGU.
In the case of B15, the binding signal is reported as 0.0103 KA relative to UGCAUGU.
With B16 the binding signal was 0.00651 KA relative to UGCAUGU.
With B17 the binding signal was 0.00938 KA relative to UGCAUGU.
In the case of B18, the binding signal is reported as 0.00689 KA relative to UGCAUGU.
In the case of B19, the binding signal is reported as 0.004 KA relative to UGCAUGU.
In the case of B20, the binding signal is reported as 0.000335 KA relative to UGCAUGU.
For B21, the binding signal was 0.0165 KA relative to UGCAUGU.
With B22 the binding signal was 0.00959 KA relative to UGCAUGU.
With B23 the binding signal was 0.00507 KA relative to UGCAUGU.
With B24 the binding signal was 0.00275 KA relative to UGCAUGU.
In the case of B25, the binding signal is reported as 0.0153 KA relative to UGCAUGU.
With B26 the binding signal was 0.00678 KA relative to UGCAUGU.
With B27 the binding signal was 0.00608 KA relative to UGCAUGU.
B28 was tested, and the binding signal was 0.00297 KA relative to UGCAUGU.
In the case of B29, the binding signal is reported as 0.00995 KA relative to UGCAUGU.
B30 was tested, and the binding signal was 0.00287 KA relative to UGCAUGU.
In the case of B31, the binding signal is reported as 0.0298 KA relative to UGCAUGU.
